The record followed here is the RNAGym collection of RNA variant scans (doi:10.1093/nar/gkz1192).

The chains are these.
B1: CPEB3 Ribozyme (parent)
chain: UAACAGGGGGCCACAGCAGAAGCGUUCACGUCGCAGCCCCUGUCAGAUUCUGGUGAAUCUGCGAAUUCUGCUGUAUAUCUC

The source gives no read counts; variants with many changes may rest on few reads.

Variants of B1 are the subject of this data set. Put plainly: self-cleavage, relative activity (ratio to wild type); higher = more cleavage; in vitro, sequencing. In short, it runs like this: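 Relative activity compares each variant's cleaved/total read fraction with that of the unmutated ribozyme. To get these fractions, barcoded CPEB3 ribozyme libraries from rounds of error-prone PCR were transcribed with T7 RNA polymerase for 5 hours at 37°C and then given 15 min of DNase I treatment before EDTA was added. The RNAs were reverse transcribed with template switching and sequenced on Illumina, and DNA sequencing linked barcodes to variants. A minimum of 5 reads applied, and three batches were averaged.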
As for A18U U25C C29G U54G A77G, the self-cleavage was 0.06.
As to A18U G61A A64G C81U, the self-cleavage came to 0.19.
Consider A18U U31A U41C, for which the self-cleavage came to 0.2.
In the case of A18U U25C A64U U74C, the self-cleavage was found to be 0.07.
In the case of A18U U25C U49C, the self-cleavage is 0.08.
Take A18U U26G A35G A56G U60A C68U: the self-cleavage was found to be 0.09.
Then A18U U60C U72A, with 0.21; and A18U U25C A45U A47C U49C U54C, with 0.33.
As for A18U U54G U60C U72C, the self-cleavage was 0.16.
Turning to A18U U26C C37A U49C, the self-cleavage was 0.15.
Then A18U U67C C81A, with 0.25; and A18U U49C G70A, with 0.26.
In the case of A18U G53U U69C U72C, the self-cleavage amounted to 0.25.
A18U U69C U80C: the self-cleavage stood at 0.56.
For A18U U25C U41A U43C C50A U54C, the self-cleavage stood at 0.1.
For the variant A18U G33A U69C, the self-cleavage was 0.36.
Consider A18U U51G G63A, for which the self-cleavage is 0.43.
In the case of A18U G46A U58A, the self-cleavage amounted to 0.14.
The value for A18U U43A U54C U78C was 0.28.
As to A18U G24A U26C C37U G63C U66C U69C, the self-cleavage was 0.03.
Then A18U U26A A56G U67A U69C U78C, with 0.1; and A18U G46A U74A C79A, with 0.1.
Take A18U U31A A47G U54G U60G U72C: the self-cleavage was determined as 0.15.
Regarding A18U G61A C62U, the self-cleavage worked out at 0.29.
For the variant A18U U25C U69C U80C, the self-cleavage worked out at 0.07.
As for A18U G24U U66C C81U, the self-cleavage stood at 0.05.
The value for A18U U49A U51G U78C was 0.21.
As to A18U U25C C39A, the self-cleavage amounted to 0.1.
Then A18U U31G U41A A56G A64G U74C, with 0.05; and A18U U69C U72C A77G, with 0.25; and A18U U41A U72C, with 0.27.
A18U U26C A28C: the self-cleavage came out at 0.1.
Regarding A18U U43C U67A, the self-cleavage was determined as 0.18.
As for A18U U41C U51C G61A, the self-cleavage is 0.29.
As for A18U U26C U31C U60G, the self-cleavage amounted to 0.06.
Then G19A A20G U54C U60C, with 0.11; and A18U U25A A35C U60A, with 0.05; and A18U U58C U67C, with 0.34.
As for A18U U31C A35G A47G U74C, the self-cleavage came to 0.47.
Then A18U U60A U80C, with 0.24; and A18U U31A U41C A64U, with 0.14; and A18U U41C A56U, with 0.16.
A18U G30A U49C: the self-cleavage was found to be 0.16.
Turning to A18U U26C G33A, the self-cleavage turned out to be 0.24.
A18U U26C A56G: the self-cleavage was 0.2.
Turning to A18U U25C U67C U69A, the self-cleavage was 0.13.
As for A18U U43C A56G U58C A65G U67C, the self-cleavage worked out at 0.33.
With A18U U26C A57G G73U, the self-cleavage was 0.11.
Take A18U U31C A56U: the self-cleavage stood at 0.19.
As for A18U U54C U66C, the self-cleavage amounted to 0.1.
As for A18U U25C A28G U31C U41C U74G A77G, the self-cleavage is 0.27.
Consider A18U U41C U72C, for which the self-cleavage came out at 0.26.
For the variant A18U U31C U66C, the self-cleavage amounted to 0.35.
Regarding A18U U31C U51C U67C U72G, the self-cleavage was found to be 0.12.
The value for A18U U31C U58C U60C was 0.16; that for A18U U31C U41C G46A U72C was 0.22.
For the variant A18U G30A C34U A64U, the self-cleavage turned out to be 0.08.
In the case of A18U U31A A56U U67C, the self-cleavage worked out at 0.11.
As to A18U U48C U49C U60C, the self-cleavage is 0.08.
The value for A18U U43C U72C was 0.19.
Then A18U U31A U41A C44A A56U, with 0.08.
The value for A18U U49C U66C was 0.16; that for A18U U43A U69C A75G was 0.37.
With A18U U41A U60C U69C U72A U74C, the self-cleavage stood at 0.06.
As for A18U U26C U43C U51A U60C A77G, the self-cleavage was 0.15.
Turning to A18U U60A U76A, the self-cleavage was 0.25.
On to A18U U25C U26A U31C C40U C62U, for which the self-cleavage stood at 0.07.
In the case of A18U U25C A64G U67A, the self-cleavage came to 0.06.
With A18U G24A U25A U26A A45G U76C U80A, the self-cleavage was found to be 0.02.
On to A18U U26C U31A U60A, for which the self-cleavage was determined as 0.16.
Take A18U U25C G30A U31C A45U U76A: the self-cleavage is 0.05.
For A18U G30A G33A U78C, the self-cleavage worked out at 0.06.
Then A18U U41C U54A, with 0.46; and A18U U31C U49C U54A U80A, with 0.09.
As to A18U U48C U60C, the self-cleavage came out at 0.08.
As for A18U U26A U43C, the self-cleavage worked out at 0.28.
Turning to A18U U25C A28G, the self-cleavage was 0.26.
The value for A18U U43C G70A was 0.12.
The value for A18U U54C U76C was 0.37; that for A18U U51A C59G U72C U80C was 0.19; that for A18U G24U U72A was 0.13.
The value for A18U U48C U54C was 0.21.
Take A18U U43A U69A U80C: the self-cleavage is 1.22.
The value for A18U U25C A35G U72C was 0.08; that for A18U U60C A64U U66C was 0.4.
Turning to A18U G22A A28G U41C A57G G61C, the self-cleavage is 0.14.
Turning to A18U G24A U72A, the self-cleavage came out at 0.16.
The value for G19A A20G A28G U41A was 0.09.
For A18U U31C U49C U72G, the self-cleavage amounted to 0.11.
For the variant A18U U25C U76A, the self-cleavage came out at 0.33.
With A18U U26A U41C A56U, the self-cleavage was 0.2.
The value for A18U U66C U74A was 0.17.
A18U U26C A35U A45U U54C A77G: the self-cleavage was 0.2.
For A18U U25C G33A U60C, the self-cleavage turned out to be 0.11.
In the case of A18U U48C U51A A57G A64G A77U, the self-cleavage came out at 0.08.
In the case of A18U U26A A35U U43C U49C C59A, the self-cleavage came out at 0.08.
Consider A18U U43C U69A A75G, for which the self-cleavage came to 0.43.
Then A18U U26A G33U A45C A56G A57U U72C, with 0.06.
As for A18U U26A U67A, the self-cleavage came to 0.21.
Turning to A18U G19U U54C A64G U66G, the self-cleavage was 0.07.
Then A18U U49C A56G A65G U67C A77U, with 0.07; and A18U U25C C29U, with 0.12; and A18U U25C U26A G52A A75G, with 0.21.
The value for A18U U41G U60A G73A U78C U80C was 0.34.
Consider A18U U26G A35G, for which the self-cleavage was determined as 0.14.
With A18U U51C G70A, the self-cleavage was 0.36.
Consider A18U U51G A56U U76C U80C, for which the self-cleavage was 0.18.
For the variant A18U U25C U60A U78C, the self-cleavage came to 0.1.
Take A18U U25C C29U U54A: the self-cleavage came to 0.22.
For the variant A18U U25A U26C U72A, the self-cleavage came to 0.05.
On to A18U U31C A35U A65G, for which the self-cleavage was found to be 0.12.
As to A18U U41C A65G, the self-cleavage worked out at 0.23.
Regarding A18U U26C A64U U69C U76C, the self-cleavage worked out at 0.07.
Consider A18U G22A U41A A45U A47G, for which the self-cleavage amounted to 0.13.
The value for A18U U26C A28U U67A was 0.07; that for A18U U49C U51C was 0.4; that for A18U G33A U60C U69C was 0.12.
Consider A18U U31C A56G A65G U67C, for which the self-cleavage came to 0.07.
As to A18U U41A A47U, the self-cleavage amounted to 0.21.
As to A18U U26A U58A U66C U72C, the self-cleavage turned out to be 0.13.
As for A18U U25C U31A U41G U54C U66C C68A, the self-cleavage is 0.18.
As to A18U U31C U49C, the self-cleavage came out at 0.05.
In the case of A18U U25C U72A, the self-cleavage was 0.24.
As for A18U U25C U26C A45G U69C, the self-cleavage worked out at 0.14.
As for A18U U26A U72C, the self-cleavage was 0.14.
In the case of A18U U25C C32U A57G, the self-cleavage is 0.07.
Turning to A18U U25C U69C, the self-cleavage was determined as 0.49.
The value for A18U U31C U60A U78A was 0.12.
The value for A18U U25A A35G U43C U51C U80C was 0.04; that for A18U U26C U76C was 0.42; that for A18U G33A U48C A56G U72A was 0.07.
As to A18U G36A A45U A64G, the self-cleavage worked out at 0.12.
In the case of A18U G63U A77U, the self-cleavage amounted to 0.53.
Consider A18U G33U U43C U60A C68U, for which the self-cleavage turned out to be 0.13.
A18U U31C U72A A75U: the self-cleavage amounted to 0.04.
In the case of A18U U51A A56U U80C, the self-cleavage worked out at 0.26.
Consider A18U U26G U60A C68A, for which the self-cleavage was determined as 0.04.
On to A18U G22A U41A A57G A64U U72C U76A, for which the self-cleavage amounted to 0.05.
In the case of A18U U26G A57U, the self-cleavage was found to be 0.17.
As for A18U U43C U51C, the self-cleavage worked out at 0.35.
For the variant A18U G24A U76G, the self-cleavage was found to be 0.07.
Regarding A18U U26A A35G U41G U49C U78A, the self-cleavage is 0.03.
The value for A18U G30A A45G U78G was 0.04.
With A18U G24U C62A A64G, the self-cleavage came out at 0.14.
With A18U U25C U60A G70A A77G, the self-cleavage was 0.07.
Then A18U U25C U26C C39G U54C U76C, with 0.2; and A18U U43C U78A, with 0.41; and A18U U25C U51G U60C U72C, with 0.06.
For A18U U26C U41C U66C, the self-cleavage is 0.07.
Take A18U U26G A57G U60A: the self-cleavage came out at 0.12.
A18U U31A A64G U78C: the self-cleavage worked out at 0.08.
On to A18U U51G U72A, for which the self-cleavage turned out to be 0.21.
As to A18U U26C A45G G52A U69A C71A A77G, the self-cleavage worked out at 0.13.
Consider A18U U67C U76C, for which the self-cleavage was 0.23.
Consider A18U U41C A45U U48C A75U U78A, for which the self-cleavage is 0.25.
With A18U U25C U51A, the self-cleavage was determined as 0.31.
As to A18U U51A A65G, the self-cleavage was found to be 0.27.
As to A18U U60A U72A, the self-cleavage worked out at 0.74.
Then A18U U54A C59U, with 0.33; and A18U U43A U80C, with 0.59; and A18U U25C U26C, with 0.29.
With A18U U25C C38G C59A, the self-cleavage came to 0.04.
A18U U31A A45G U48C: the self-cleavage was 0.14.
As to A18U U25A A28G A35G A65G, the self-cleavage was determined as 0.1.
Then A18U G61A U78A, with 0.28; and A18U U26C A35U U60C U66C, with 0.14; and A18U U25C U54A A65G U67C, with 0.11.
